Experimental data as given in the supplement of paper PMC11741623.
The list shows a part of the results. Interaction screen of human proteins with wild-type SARS-CoV-2 proteins by split-DHFR complementation in yeast, 1 µg/mL methotrexate. Value = fitness of the pair (three or more lineages) minus that of the viral protein without a human partner, on a scale set by negative (0) and fused positive (1) controls, mean of up to three cultures; higher = more likely to interact. Active = false discovery rate below 0.05 (one-sided t-test) in at least one culture. Nearly all pairs are not hits, and differences among them are mostly noise (correlation between cultures about 0.3); most hits were seen in one culture only. Human sequences are the Swiss-Prot entries looked up by gene name; the clone may be another isoform. NSP2 values were corrected by the authors for a growth advantage. Listed are human proteins with a hit and a random twelfth of the others.

Tests used:
Assay in all cases: yeast fitness gain over the viral ORF with no human partner (scaled fitness); higher = more likely to interact
[1] = target: SARS-CoV-2 M
Protocol: (§1)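 Split mouse DHFR complementation in pooled diploid yeast: human ORFeome clones carry one fragment and viral ORFs the other; barcoded lineages compete in 1 µg/mL methotrexate and fitness is read by barcode sequencing in up to three cultures.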

[2] = target: SARS-CoV-2 NSP1
Protocol: as §1

[3] = target: SARS-CoV-2 NSP10
Protocol: as §1

[4] = target: SARS-CoV-2 NSP12
Protocol: as §1

[5] = target: SARS-CoV-2 NSP13
Protocol: as §1

[6] = target: SARS-CoV-2 NSP15
Protocol: as §1

[7] = target: SARS-CoV-2 NSP16
Protocol: as §1

[8] = target: SARS-CoV-2 NSP2
Protocol: as §1

[9] = target: SARS-CoV-2 NSP5
Protocol: as §1

[10] = target: SARS-CoV-2 NSP6
Protocol: as §1

[11] = target: SARS-CoV-2 NSP7
Protocol: as §1

[12] = target: SARS-CoV-2 NSP8
Protocol: as §1

[13] = target: SARS-CoV-2 NSP9
Protocol: as §1

[14] = target: SARS-CoV-2 ORF10
Protocol: as §1

[15] = target: SARS-CoV-2 ORF3B
Protocol: as §1

[16] = target: SARS-CoV-2 ORF6
Protocol: as §1

[17] = target: SARS-CoV-2 ORF7A
Protocol: as §1

[18] = target: SARS-CoV-2 ORF7B
Protocol: as §1

[19] = target: SARS-CoV-2 ORF8
Protocol: as §1

[20] = target: SARS-CoV-2 ORF9B
Protocol: as §1

[21] = target: SARS-CoV-2 ORF9Bwu (the 73-codon ORF)
Protocol: as §1

[22] = target: SARS-CoV-2 S
Protocol: as §1

[23] = target: SARS-CoV-2 N
Protocol: as §1

[24] = target: SARS-CoV-2 NSP14
Protocol: as §1

[25] = target: SARS-CoV-2 NSP4
Protocol: as §1

[26] = target: SARS-CoV-2 ORF3A
Protocol: as §1

Measured: yeast fitness gain

B1: AGBL2, Q5U5Z8 (protein)
chain: MFPALETHLKQTIPDPYEDFMYRHLQYYGYFKAQRGSLPNSATHQHVRKNNPQCLLNGSLGEKDDLIPDTLQKEKLLWPISLSSAVHRQIEAINRDFHSCLGWMQWRGLSSLQPPPPRFKDSPASAFRVAGITDSHMLSLPHLRSRQLLYDELDEVNPRLREPQELFSILSTKRPLQAPRWPIECEVIKENIHHIEWAPPQPEYFYQPKGNEKVPEIVGEKKGTVVYQLDSVPIEGSYFTSSRVGGKRGIVKELAVTLQGPEDNTLLFESRFESGNLQKAVRVDTYEYELTLRTDLYTNKHTQWFYFRVQNTRKDATYRFTIVNLLKPKSLYTVGMKPLLYSQLDANTRNIGWRREGNEIKYYKNNTDDGQQPFYCLTWTIQFPYDQDTCFFAHFYPYTYTDLQCYLLSVANNPIQSQFCKLQTLCRSLAGNTVYLLTITNPSQTPQEAAAKKAVVLSARVHPGESNGSWVMKGFLDFILSNSPDAQLLRDIFVFKVLPMLNPDGVIVGNYRCSLAGRDLNRHYKTILKESFPCIWYTRNMIKRLLEEREVLLYCDFHGHSRKNNIFLYGCNNNNRKYWLHERVFPLMLCKNAPDKFSFHSCNFKVQKCKEGTGRVVMWRMGILNSYTMESTFGGSTLGNKRDTHFTIEDLKSLGYHVCDTLLDFCDPDQMKFTQCLAELKELLRQEIHKKFHELGQDVDLEGSWSDISLSDIESSTSGSDSSLSDGLPVHLANIADELTQKKKMFKKKKKKSLQTRKQRNEQYQKKNLMQKLKLTEDTSEKAGFASTLQKQPTFFKNSENSSFLPMKNENPRLNETNLNRRDKDTPLDPSMATLILPKNKGRMQNKKPGFTVSCSPKRTINSSQEPAPGMKPNWPRSRYPATKRGCAAMAAYPSLHIYTYP
inactive: [1] 0.029 | [2] -0.0385 | [3] -0.0302 | [4] 0.0434 | [5] -0.0142 | [6] 0.105 | [7] -0.0874 | [8] -0.152 | [9] 0.0144 | [10] -0.0793 | [11] -0.0362 | [12] 0.0381 | [13] -0.05 | [14] 0.0117 | [15] 0.0057 | [16] -0.0649 | [17] -0.263 | [18] 0.0708 | [19] 0.064 | [20] -0.0601 | [21] -0.118 | [22] 0.0903

B2: SOCS3, O14543 (protein)
chain: MVTHSKFPAAGMSRPLDTSLRLKTFSSKSEYQLVVNAVRKLQESGFYWSAVTGGEANLLLSAEPAGTFLIRDSSDQRHFFTLSVKTQSGTKNLRIQCEGGSFSLQSDPRSTQPVPRFDCVLKLVHHYMPPPGAPSFPSPPTEPSSEVPEQPSAQPLPGSPPRRAYYIYSGGEKIPLVLSRPLSSNVATLQHLCRKTVNGHLDSYEKVTQLPGPIREFLDQYDAPL
inactive: [1] -0.277 | [23] -0.118 | [2] 0.0657 | [3] -0.0224 | [4] 0.113 | [5] -0.0406 | [24] 0.113 | [6] -0.0363 | [7] 0.0927 | [8] -0.199 | [25] -0.0735 | [9] 0.0466 | [10] -0.0308 | [11] 0.0799 | [12] 0.0752 | [13] -0.104 | [14] 0.00269 | [26] -0.191 | [15] -1.1e-05 | [16] 0.0121 | [17] 0.0038 | [18] -0.0321 | [19] 0.0433 | [20] -0.0353 | [22] 0.0164

B3: AMTN, Q6UX39 (protein)
chain: MRSTILLFCLLGSTRSLPQLKPALGLPPTKLAPDQGTLPNQQQSNQVFPSLSLIPLTQMLTLGPDLHLLNPAAGMTPGTQTHPLTLGGLNVQQQLHPHVLPIFVTQLGAQGTILSSEELPQIFTSLIIHSLFPGGILPTSQAGANPDVQDGSLPAGGAGVNPATQGTPAGRLPTPSGTDDDFAVTTPAGIQRSTHAIEEATTESANGIQ
inactive: [1] 0.0493 | [2] 0.0789 | [3] -0.0834 | [4] -0.00713 | [5] -0.0571 | [24] 0.0588 | [7] 0.0435 | [8] -0.25 | [9] -0.0133 | [10] 0.107 | [11] 0.0919 | [12] -0.0641 | [13] -0.0718 | [14] 0.0333 | [26] 0.0341 | [15] -0.0312 | [16] 0.0602 | [17] -0.0556 | [18] 0.125 | [19] 0.0316 | [20] 0.0549 | [21] -0.0693 | [22] -0.0131
